These results are taken from PubChem BioAssay AID488969 (Vanderbilt High Throughput Screening Facility, 2010).

Structures are written as SMILES. In all, about 110,000 compounds were measured (“z-score”: median about -0.1, highest 2% from about 2 on). This is one part of the list.

The target of the experiment is Metabotropic glutamate receptor 8 (Rattus norvegicus) (UniProt P70579). The experiment is described as follows: rat mGluR8 modulators via GIRK flux, primary screen, cell-based, thallium flux, HTS (AID 488969). The note with it: HEK293 rat mGluR8, GIRK (G protein-gated inwardly rectifying potassium channel) thallium flux, FluoZin2; at 10 µM; stronger effect = higher value; submaximal glutamate (EC20) added with thallium.
Sequence of UniProt P70579 (P70579 whole entry, looked up): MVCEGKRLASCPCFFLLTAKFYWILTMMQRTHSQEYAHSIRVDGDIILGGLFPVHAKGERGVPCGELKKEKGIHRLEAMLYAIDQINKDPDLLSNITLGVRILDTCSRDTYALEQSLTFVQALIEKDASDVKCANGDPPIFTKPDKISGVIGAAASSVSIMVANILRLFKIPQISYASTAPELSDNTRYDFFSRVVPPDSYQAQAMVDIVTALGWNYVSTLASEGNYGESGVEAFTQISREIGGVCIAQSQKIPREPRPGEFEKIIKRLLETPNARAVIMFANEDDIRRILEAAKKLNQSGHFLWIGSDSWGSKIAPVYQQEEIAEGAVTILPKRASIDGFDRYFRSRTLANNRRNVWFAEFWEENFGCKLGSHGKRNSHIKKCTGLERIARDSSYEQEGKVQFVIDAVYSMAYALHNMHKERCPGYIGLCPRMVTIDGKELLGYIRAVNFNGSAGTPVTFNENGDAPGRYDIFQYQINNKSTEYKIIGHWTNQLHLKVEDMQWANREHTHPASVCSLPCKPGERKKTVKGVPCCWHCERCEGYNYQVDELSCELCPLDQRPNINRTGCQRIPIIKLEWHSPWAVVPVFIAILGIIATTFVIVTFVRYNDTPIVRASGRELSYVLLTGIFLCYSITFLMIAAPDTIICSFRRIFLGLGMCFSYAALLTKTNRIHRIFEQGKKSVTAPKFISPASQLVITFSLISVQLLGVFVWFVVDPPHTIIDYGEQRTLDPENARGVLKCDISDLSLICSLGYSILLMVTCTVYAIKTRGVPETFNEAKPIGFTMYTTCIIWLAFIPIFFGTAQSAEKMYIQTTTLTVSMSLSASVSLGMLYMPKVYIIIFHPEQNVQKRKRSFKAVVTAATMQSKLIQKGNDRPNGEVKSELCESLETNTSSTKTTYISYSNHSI
Consider `COc1ccc(CCNC(=S)Nc2ccc(C)cc2C)cc1`, for which the z-score was -0.0431.
For `O=C(NCC(c1cccnc1)N1CCN(c2ccc(F)cc2)CC1)c1ccccc1` (stereo not given) the value was 0.917.
As for `Cc1nnc(SCc2ccc(Cl)cc2Cl)[nH]c1=O`, the z-score is 0.492.
The value for `Cn1cc(/C=C/c2nc3ccccc3c(=O)n2-c2cccc([N+](=O)[O-])c2)c2ccccc21` was -0.0701; that for `COC(=O)C1C2C=CC3(CN(CC4CCCO4)C(=O)C13)O2` (stereo not given) was -0.0852.
`CCCCC(=O)Nc1ccc(C(=O)NNC(=S)NC(=O)c2cccs2)cc1` registered a z-score of 0.439.
The value for `Cc1ccc(-c2cc3nc(-c4ccccc4)cc(N)n3n2)cc1` was -0.0169; that for `c1ccc(CNc2ccc3c(c2)ncn3C2CCCCC2)nc1` was -0.0967; that for `COc1ccc(S(=O)(=O)n2nc(OC(=O)C3CCCCC3)cc2N)cc1` was 0.933.
Take `O=C(CSc1nc2ccc([N+](=O)[O-])cc2[nH]1)NC1CCCCCC1`: the z-score amounted to 0.93.
For `Cc1cc(NC(=O)/C=C/c2ccc(F)cc2)n(-c2nc3ccccc3[nH]2)n1` the value was -0.0458; for `CC(NC(=O)c1ccc(N2CCCC2=O)cc1)c1ccccc1` (stereo not given), -0.16.
`O=C(CN(C(=O)c1ccc(Cl)cc1)C1CCCCC1)Nc1ccc(Cl)c([N+](=O)[O-])c1` gave a z-score of 0.377.
For `O=C(O)C1CCCCC1C(=O)Nc1cc(Cl)ccc1Cl` (stereo not given) the value was 2.08; for `CC(C)n1nnnc1-c1cccc(Cl)c1`, -0.12.
For `CC(=O)Nc1c(C(=O)N2CCOCC2)cnn1-c1ccc(C)c(C)c1` the value was -0.0497; for `Oc1c(C=NCc2ccncc2)sc2ccccc12`, 2.11.
For `CCN(CCO)Cc1csc2c(Br)cccc12` the value was 0.216; for `COCCn1c(=O)[nH]c2cc(C(=O)NCCN3CCN(c4ccccc4)CC3)ccc2c1=O`, -0.468.
Consider `CC(NC(=O)C(=O)NN=C1CCCCCC1)c1ccccc1` (stereo not given), for which the z-score is -0.167.
For `COc1ccc(/C=C/C(=O)NC(C)CCc2ccccc2)cc1` (stereo not given) the value was 0.461; for `CCN(C(=O)CSc1nnc(-c2ccncc2)n1C)C1CCS(=O)(=O)C1` (stereo not given), -0.521.
The value for `Cc1cc(C)c(NC(=O)C2C3/C=C\CCCCC32)c(C)c1` (stereo not given) was -0.102; that for `CN(C)c1ccnc2sc(C(=O)c3ccccc3)c(N)c12` was -0.37.
For `O=C(N/N=C\c1ccc(CN(Cc2ccc(Cl)cc2)S(=O)(=O)c2ccccc2)o1)C(=O)Nc1ccc(F)cc1` the value was -0.0826.
The compound `O=C(CO/N=C/c1ccccc1OC(F)F)NC1CCCCC1` displayed a z-score of -0.0902.
The value for `COc1ccc(OC)c(-c2nnc(NC(=O)C(C)Sc3nncn3C)s2)c1` (stereo not given) was -0.462.
For `Cc1cccc(N2CC(C)Cn3c2nc2c3c(=O)n(CC(=O)OCc3ccccc3)c(=O)n2C)c1` (stereo not given) the value was -0.321; for `O=C(c1ccco1)N1CCN(c2nc(-c3ccc(F)cc3)cs2)CC1`, -1.08.
For `NC(=O)c1cc(-c2ccccc2)nc(N2CCCCCC2)n1` the value was 0.438.
